According to PubChem BioAssay (Tox21):
Where “and” joins values, the source holds several entries; their conditions need not be identical. Equal values may be shown once. Inconclusive results, whose numbers are uncertain, are shown with a selection of clear calls. Potencies beside an inconclusive call are fits to weak or partial responses and may not hold up. Calls of active or inactive are those of the source. Calls follow the shape of the dose curve; as a rule, active = well fitted activation curve with a large enough effect in the repeat runs; inconclusive = weak or mixed curves, or effect the other way; inactive = no such curve, though single readings can be large or run the other way.

Test: qHTS assay to identify small molecule agonists of the retinoic acid receptor (RAR) signaling pathway (AID 1159553)
Details: C3RL4 RARE luciferase reporter, agonist, 6 h; activation: at 73.3 µM (top of the series) unless noted
Outline: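 C3RL4 RARE-luciferase cells were seeded at 1,000/well and grown overnight at 37 C, then exposed to compounds for 6 hr at 37 C, 5% CO2. Luciferase reagent was added and luminescence was read after 30 min at room temperature.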
% is scaled to controls: 0 for no effect and ±100 for the full control effect; potency is read from the fitted curve at half-maximal effect; tags tell the direction and shape of the fitted curve.

SMILES	Potency	activation
CC(=O)c1ccc(OCC(=O)N2CCCCC2)cc1	active: 13.3 µM	–
O=C(OCC(O)CO)c1ccccc1Nc1ccnc2cc(Cl)ccc12 (stereo not given)	inconclusive: 18.8 µM [inhibitor, partial curve]	–
CCCCCC(C)OC(=O)COc1ccc(Cl)c2cccnc12 (stereo not given)	inactive	–
CC(C)=CCC1=C(O)c2ccccc2C(=O)C1=O	inactive	–
COC(=O)Nc1nc2ccc(Sc3ccccc3)cc2[nH]1	inconclusive: 611 nM [activator, full curve, poor fit] and inconclusive: 3.35 µM [activator, full curve]	–
O=C(/N=N/C(=O)OCc1ccccc1)OCc1ccccc1	inconclusive: 54.5 µM [activator, partial curve, poor fit]	–
OC12N=C(c3ccccc3)SC1Cc1cc(Cl)ccc12 (stereo not given)	active: 1.22 µM	–
CC(C)c1c(C(=O)Nc2ccccc2)c(-c2ccccc2)c(-c2ccc(F)cc2)n1CC[C@@H](O)C[C@@H](O)CC(=O)O	inconclusive: 64.1 µM [activator, partial curve, poor fit]	–
NC(N)=NCCN1CCCCCCC1	–	inactive: 0.885% [at 0.756 µM]
[O-]/[N+](=N\O)c1ccccc1	inconclusive: 68 µM [inhibitor, single point] and active: 48.6 µM	–
O=C(c1ccc(O)cc1)c1ccc(Cl)cc1	inconclusive: 27.9 µM [activator, partial curve]	–
CCOC(=O)O[C@]1(C(=O)OCCl)CC[C@H]2[C@@H]3CCC4=CC(=O)C=C[C@]4(C)[C@H]3[C@@H](O)C[C@@]21C	inactive	–
CN(C)c1ccc(C(=N)c2ccc(N(C)C)cc2)cc1	inconclusive: 12 µM [activator, full curve, poor fit] and active: 41.6 µM	–
O=C(c1ccccc1)c1ccc(O)cc1	inconclusive: 61.8 µM [activator, partial curve]	–
Nc1ccc(Cl)c(N)c1	inconclusive: 68.8 µM [activator] and active: 68.6 µM	–
CCCCCCCCCC(=O)O	inactive	–
CCC(=O)OC(=O)CC	inactive	–
CO[C@@]12[C@H](COC(N)=O)C3=C(C(=O)C(C)=C(N)C3=O)N1C[C@@H]1N[C@@H]12	inconclusive: 26.6 µM [inhibitor, partial curve]	–

SMILES	Potency	activation
Cc1ccc(S(=O)(=O)NC2CCCCC2)cc1	inactive	–
Cc1cc2nc3ccc(=[N+](C)C)cc-3sc2cc1N	active: 1.88 µM	–
CC1C2CC(CC2C2CCCC(O)C2)C1(C)C (stereo not given)	inconclusive: 77 µM [activator, partial curve, poor fit]	–
CCCCCCCCCCCCCO	inconclusive: 63.3 µM [activator, partial curve, poor fit]	–
CC1=Nc2ccc3ccccc3c2C1(C)C	inconclusive: 54.5 µM [activator, partial curve]	–
O=C1c2ccccc2C(=O)C1c1ccc2ccccc2n1	active: 0.108 µM	–
Oc1ccc(Cc2ccccc2O)cc1	inactive	–
Cc1nccn1-c1ccc(Sc2cccc(C3(C(N)=O)CCOCC3)c2)cc1	inconclusive: 48.6 µM [inhibitor, partial curve]	–
COC(=O)Nc1nc2ccc(C(=O)C3CC3)cc2[nH]1	–	inconclusive: 8.08% [phenotype inactive]
CC(=O)NCCO	–	inconclusive: 3.35% [phenotype inactive]
O=C1c2c(O)ccc(Nc3ccc(CCO)cc3)c2C(=O)c2c([N+](=O)[O-])ccc(O)c21	inconclusive: 9.69 µM [activator, full curve, poor fit]	–
CCCCN(CCCC)C(=S)SSC(=S)N(CCCC)CCCC	active: 1.52 µM	–
Cc1cccc2sc(N)nc12	inconclusive: 69.4 µM [activator, partial curve, poor fit]	–
CC(C)(C)C1CCC(O)CC1 (stereo not given)	–	inconclusive: -1.26% [phenotype inactive] [at 94.8 µM]
Nc1ccc2c(O)cc(S(=O)(=O)O)cc2c1	inconclusive: 68.7 µM [inhibitor] and inconclusive: 68.6 µM [inhibitor, single point]	–
Cc1nc2ccccc2c(=O)o1	inactive	–
COc1ccc(NC(=O)CC(C)=O)cc1	–	inconclusive: 6.45% [phenotype inactive]
